# Measurements published in the RNAGym collection of RNA variant scans (doi:10.7554/elife.90254).
# Read counts are not given, so values of variants with three or more changes are uncertain.
# B1: OR4K15 (parent)
# chain: GUUAACGGUCAUAGGCCAUGGAAACUAGGAGCACCAUUUCGCUGCCAGUGAAGAAAUGAACAAAGAAAAUCUGGGCCAGGCAGGCAUCAAAAGAAAUAGUCUUGCGCUCAACCAGAAAGUCUGUAAUCAUUUUAAGGGUA
# Variants of: B1
# Experiment: self-cleavage, relative activity (ratio to wild type); higher = more cleavage; in vitro, sequencing; the parent is a self-cleaving ribozyme
row,Variant,self-cleavage
1,GUUAACGGUCAUAGGCCAUGGAAACUAGGAGCACCAUUUAGCUGCCAGUGAAGAAAAGAACAAAGAAAACCUGGGCCAGGCAGGCAUCAAAAGAAAUAGUCUUGCGCUCAACCAGAAAGUCUGUAAUCAUUUUAAGGGUA,1.48
2,GUUAACGGUCAUAGGCCAUGGAAACUAGGAGCACCAUUUCGAUGCCGGUGAAGAAAUGAACAAAGAAAAUCUGGGCCAGGCAGGCAUCUAAAGAAAUAGUCUUGCGCUCAACCAGAAAGUCUGUAAUCAUUUUAAGGGUA,0.91
3,GUUAACGGUCAUAGGCCAUGGAAACUAGGAGCACCAUUUCACUGCCAGUGAAGAAAUGGGCAAAGAAAAUCUGGGCCAGGCAGGCAUCAAAAGAAAUAGUCUUGCGCUCAACCAGGAAGUCUGUAAUCAUUUUAAGGGUA,0.61
4,GUUAACGGUCAUAGGCCAUGGAAACUAGGAGCACCAUUUCACUGCCAGUGAAGAAAUGAACAAGGAAAAUCUGGGCCAGGCAGGCAUCAAAAGAAAUGGUCUUGCGCUCAACCAGAAAGUCUGUAAUCAUUUUAAGGGUA,0.34
5,GUUAACGGUCAUAGGCCAUGGAAACUAGGAGCACCAUUUCACUGCCGGUGAAGAAAUGAACAAAGAAAAUCUGGGCCAGGCAGGCAUCAAAAGGAAUAGUCUUGCGCCCAACCAGAAAGUCUGUAAUCAUUUUAAGGGUA,0.01
6,GUUAACGGUCAUAGGCCAUGGAAACUAGGAGCACCAUUUAGCCGCCAGUGAAGAAAUGAACAAAGAAAAUCUGGGCCAGGCAGGCAUCAAAAGAAAUAGUCUUGCGCUCAACCAGAAAGUCUGUAAUCACUUUAAGGGUA,0.62
7,GUUAACGGUCAUAGGCCAUGGAAACUAGGAGCACCAUUUUGCUGCCAGUGAAGAAGUGAACAAAGAAAGUCUGGGCCAGGCAGGCAUCAAAAGAAAUAGUCUUGCGCUCAACCAGAAAGUCUGUAAUCAUUUUAAGGGUA,0.65
8,GUUAACGGUCAUAGGCCAUGGAAACUAGGAGCACCAUUUAGCUGCCAGUGAAGAAAUGAACAAAGAAAAUCUGGGCCAGGCGGGCAUCAAAAGAAAUAGUCUUGCGCUCAACCCGAAAGUCUGUAAUCAUUUUAAGGGUA,0.06
9,GUUAACGGUCAUAGGCCAUGGAAACUAGGAGCACCAUUGCGCUGCCAGUGAAGAAAUGAACAAAGAAAAUCUGGGCCAGGCAGGCAUCGGAAGAAAUAGUCUUGCGCCCAACCAGAAAGUCUGUAAUCAUUUUAAGGGUA,0.05
10,GUUAACGGUCAUAGGCCAUGGAAACUAGGAGCACCAUUUAGCUGCCAGUGAAGAAAUGAACAAAGAAAAUCUGGGCCCGGCAGGCACCAGAAGUAAUAGUCUUGCGCUCAACCAGAAAGUCUGUAAUCAUUUUAAGGGUA,0.12
11,GUUAACGGUCAUAGGCCAUGGAAACUAGGAGCACCAUUUUGCUGCCAGUGGAGAAAUGAAUAAAGAAAAUCUGGGCCUGGCAGGCAUCAAAAGAAAUAGUCUUGCGCUCAACCAGAAAGUCUGUAAUCAUUUUAAGGGUA,0.22
12,GUUAACGGUCAUAGGCCAUGGAAACUAGGAGCACCAUUUCACUGCCAGUGAAGAAAUGAACAAAGAAAAUCAGGGCCAGGCAGGCAUCAAAAGAAAUAGUCUUGCGCUCAACCAGAAUGUCUGUAAUCAUUUUAAGGGUA,0.05
13,GUUAACGGUCAUAGGCCAUGGAAACUAGGAGCACCAUUUUGCUGCCGGUGAAGAAAUGAACAAAGAAAAUCUGGGCCAGGCAGGCAUCAAAAGAAAUAGUCCUGCGCUCAACCAGAAAGUCUGUAAUCAUUUUAAGGGUA,1.82
14,GUUAACGGUCAUAGGCCAUGGAAACUAGGAGCACCAUUUUGCUGCCAGUGAGGAAAUGAACAAAGAAAAUCUGGGCCAGGCAGGCAUCAAAAGAAAUAGUCUUGCGCUCAACCAGAAUGUCUGUAAUCAUUUUAAGGGUA,0.93
15,GUUAACGGUCAUAGGCCAUGGAAACUAGGAGCACCAUUUCACUGCCAGUGAAGAAAUGAACAAAGAAAAUCUGGGCCAGGCAGGCAUCAAAAGAAAUAGUCUUGCGCUCAACCAGAAGGUCUGUAACCAUUUUAAGGGUA,0.65
16,GUUAACGGUCAUAGGCCAUGGAAACUAGGAGCACCAUUUUGCUGCCAGUGAAGAAAUGAGCAAAGAAAAUCUGGGCCAGGCAGGCAUCAAAAGAAAUAGUCUUGCGCUCAACCAGAAAGUCUGUAACCAUUUUAAGGGUA,0.72
17,GUUAACGGUCAUAGGCCAUGGAAACUAGGAGCACCAUUUCACUGCCAGUGAAGAGAUGAACAAAGAAAAUCUGGGCCAGGCAGGCAUCAGAAGGAAUAGUCUUGCGCUCAACCAGAAAGUCUGUAAUCAUUUUAAGGGUA,1.96
18,GUUAACGGUCAUAGGCCAUGGAAACUAGGAGCACCAUUCCGCUGCCAGUGAAGAAAUGAACAAAGAAAAUCUGGGCCAGGCAGGCAUCAAAAGAAAUAGUCUUGCGCUCAACCAGAAAGUCCGUAGUCAUUUUAAGGGUA,1.14
19,GUUAACGGUCAUAGGCCAUGGAAACUAGGAGCACCAUUUCACUGCCAGUGAGGAAAUGAGCAAAGAAAAUCUGGGCCAGGCAGGCAUCAAAAGAAAUAGUCUUGCGCUCAACCAGAGAGUCUGUAAUCAUUUUAAGGGUA,1
20,GUUAACGGUCAUAGGCCAUGGAAACUAGGAGCACCAUUUUGCUGCCAGUGAAGAAAUGACCAAAGAAGAUCUGGGCCAGGCAGGCAUCAAAAGAAAUAGUCUUGCGCUCAACCAGAAAGUCUGUAAUCAUUUUAAGGGUA,1.77
